{"source": "PubChem BioAssay AID652104", "about": "(National Center for Advancing Translational Sciences (NCATS), 2013)", "note": "Among all 410,000 compounds or so, about 7,200 (1.8%) were called active. The inconclusive results got no clear call from the source; some entries with a clear call stand among them for comparison. The call rests on the fitted dose curve; in most records, active means well fitted activation curve with a large enough effect; inconclusive means small, poorly fitted or top-dose-only effect, or another doubt; inactive means no such curve, though single readings can be large or run the other way. Potencies of inconclusive entries are left out as doubtful fits. Potency means the concentration at half of the fitted maximal effect; tags describe the fitted curve by direction and shape.", "data": [{"experiment": "qHTS of TDP-43 Inhibitors; further: nearly all actives have a fitted effect of over 50% in size; on growth rescue (activation): % of control where 0% means no effect", "conditions": "TDP-43 expressing yeast growth rescue, BacTiter-Glo, 24 h; growth rescue (activation): at 46.1 µM (top of the series) unless noted", "procedure,_shortened": "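Galactose-induced TDP-43 yeast, OD600=0.02, compound pinned; 24 hr, 30 deg C; BacTiter-Glo luminescence for growth. Inhibitors of TDP-43 toxicity read as activators.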", "values": [{"compound": "Cc1ccccc1CCNC(=O)c1cc(C2CC2)nc2c1cnn2C(C)C", "Potency": "active: 35.5 µM"}, {"compound": "CSc1ccc(CCNC(=O)c2cccc3c2C(=O)N(C2CCCCC2)C3)cc1", "Potency": "inconclusive [activator, partial curve]"}, {"compound": "COc1ccccc1Nc1nc(N)nc(CSC(=S)N2CCC(C)CC2)n1", "Potency": "inconclusive [activator, partial curve]"}, {"compound": "CCOC(=O)c1c(NC(=O)COC(=O)CCOc2ccccc2C)sc(C(=O)NC)c1C", "Potency": "inconclusive [activator, full curve]"}, {"compound": "CN(CC(=O)Nc1cccc(Cl)c1)S(=O)(=O)/C=C/c1ccccc1", "Potency": "active: 17.8 µM"}, {"compound": "NNC(=S)Nc1ccc(OC(F)(F)F)cc1", "growth rescue (activation)": "inactive: 2.71%"}, {"compound": "CN(C)c1ccc(CN(CC2CCCO2)C(=O)c2cc3ccccc3o2)cc1", "note": "(centres undefined)", "Potency": "inconclusive [activator, single point]"}, {"compound": "CC(C)(C)n1nnnc1C(c1ccccc1)N1CCN(c2ccc(C(F)(F)F)cn2)CC1", "note": "(centres undefined)", "Potency": "active: 35.5 µM"}, {"compound": "COc1cccc(C2=CC(c3ccccc3F)n3ncc(C(=O)Nc4ccc(C)cc4)c3N2)c1", "note": "(centres undefined)", "Potency": "inconclusive [activator, partial curve]"}, {"compound": "COc1cc(C(=O)N/N=C/c2ccc3c(c2)c2ccccc2n3C)ccc1O", "Potency": "inconclusive [activator, partial curve]"}, {"compound": "CC1CCCCN1c1c(S(=O)(=O)c2ccc(Cl)cc2)cnc2ccccc12", "note": "(centres undefined)", "Potency": "inconclusive [activator, single point]"}, {"compound": "CCCC(=O)N1N=C(c2ccccc2)CC1c1cn(C)c2ccccc12", "note": "(centres undefined)", "Potency": "inconclusive [activator, partial curve]"}, {"compound": "Nc1nc(N2CCCCC2)c2ncn(C3OC(CO)C(O)C3O)c2n1", "note": "(centres undefined)", "Potency": "inconclusive [activator, partial curve, poor fit]"}, {"compound": "CCOC(=O)[C@]12CCCC=C1N(CCC1=CCCCC1)C(=O)[C@H](CC(=O)N1CCCCC1)C2", "Potency": "inconclusive [activator, partial curve]"}, {"compound": "Cc1ccc(C(=O)CCCn2nnc(-c3cccnc3)n2)cc1C", "growth rescue (activation)": "inconclusive: 29.5% [activator]"}, {"compound": "O=C(COc1ccc(-c2ccccc2)cc1)N1CCCC1", "Potency": "inconclusive [activator, partial curve, poor fit]"}, {"compound": "CCOC(=O)c1ccc(N2C(=O)CC(N3CCOCC3)C2=O)cc1", "note": "(centres undefined)", "Potency": "inconclusive [activator, single point]"}, {"compound": "O=[N+]([O-])c1cccc(CON=Cc2ccccc2O)c1", "Potency": "inconclusive [activator, single point]"}, {"compound": "C=CCSc1cc(C)nc2c(-c3ccccc3)c(C)nn12", "Potency": "inconclusive [activator, single point]"}, {"compound": "Cn1c(=O)c([N+](=O)[O-])c(Cl)c2ccccc21", "growth rescue (activation)": "inconclusive: -93.1% [activator]"}, {"compound": "COc1ccc(C)cc1NC(=O)N1CCC(CN2CCOCC2)CC1", "growth rescue (activation)": "inactive: 9.56%"}, {"compound": "COc1ccc(Cl)cc1NC(=O)NN1CCN(C)CC1", "growth rescue (activation)": "inactive: 8.63%"}, {"compound": "O=C(c1ccc(-c2nc3ccccc3s2)o1)N1CCN(c2ccccc2O)CC1", "Potency": "inconclusive [activator, single point]"}, {"compound": "CC1(c2nnc(-c3ccccc3)o2)CC(c2cccc(Cl)c2)=NO1", "note": "(centres undefined)", "Potency": "inconclusive [activator, single point]"}, {"compound": "COc1ccc(NC(=O)C(Cc2c[nH]c3ccccc23)NC(=O)OC(C)(C)C)cc1", "note": "(centres undefined)", "Potency": "inconclusive [activator, single point]"}, {"compound": "CCC(C)NC(=O)c1ccccc1NC(=O)CN1C(=O)c2ccccc2S1(=O)=O", "note": "(centres undefined)", "Potency": "inconclusive [activator, partial curve, poor fit]"}, {"compound": "CCOC(=O)c1[nH]c2ccc(OC)cc2c1NC(=O)CCN1CCc2ccccc2C1", "growth rescue (activation)": "inactive: 9.88%"}, {"compound": "Cc1ccc(S(=O)(=O)N2CCOCC2)cc1C(=O)OCc1nnc(-c2ccccc2)o1", "Potency": "inconclusive [activator, single point]"}, {"compound": "C=C(C)C(O)Cc1c(OC)ccc(C(=O)/C=C/c2ccc(O)cc2)c1O", "note": "(centres undefined)", "Potency": "inconclusive [activator, partial curve]"}, {"compound": "COc1cccc(-c2nnc(-c3ccc(C(F)(F)F)cc3)o2)c1OC", "Potency": "inconclusive [activator, single point]"}, {"compound": "Cc1cc2occ(CC(=O)NC3(C)CCS(=O)(=O)C3)c2cc1C", "note": "(centres undefined)", "growth rescue (activation)": "inactive: -5.15%"}, {"compound": "Cc1cc(C(F)(F)F)n2nc(-c3cnn(C)c3C(F)(F)F)cc2n1", "Potency": "inconclusive [activator, partial curve]"}, {"compound": "CCN(CC)C(=O)c1ccc2c(c1)N(Cc1c(F)cccc1Cl)C(=O)c1ccccc1S2", "Potency": "active: 22.4 µM"}, {"compound": "COc1ccccc1Nc1nnc(SCC(=O)NC(=O)Nc2ccc3c(c2)OCCO3)s1", "Potency": "inconclusive [activator, partial curve]"}, {"compound": "O=C(NC(=S)Nc1ccc2c(c1)OCCO2)c1cccc(Br)c1", "Potency": "inconclusive [activator, partial curve]"}, {"compound": "COc1cc2[nH]c(=O)n(CCCCCC(=O)N3CC=C(c4ccccc4)CC3)c(=O)c2cc1OC", "growth rescue (activation)": "inactive: -2.94%"}, {"compound": "COCc1ccccc1C1=CC(=O)C[C@H](c2ccc(OC)cc2)C1", "Potency": "active: 11.2 µM"}, {"compound": "CCOc1cccc2sc(N3CCN(C(=O)c4ccc5c(c4)CCCC5)CC3)nc12", "growth rescue (activation)": "inactive: 12.4%"}, {"compound": "COc1ccc(CNC(=O)CSc2nc(SC)ns2)cc1", "Potency": "inconclusive [activator, partial curve]"}, {"compound": "CCOC(=O)c1[nH]c(C)c(C(=O)OCCN2C(=O)c3ccccc3C2=O)c1C", "Potency": "inconclusive [activator, full curve]"}, {"compound": "COc1cc2c(OC)cccc2cc1C(=O)O", "Potency": "inconclusive [activator, single point]"}, {"compound": "CCc1ccccc1NC(=O)c1cnn(-c2ccccc2)c1C", "Potency": "active: 14.1 µM"}, {"compound": "COc1cc(/C=C2\\C(=O)ON=C2c2ccccc2)cc(Cl)c1O", "Potency": "inconclusive [activator, single point]"}, {"compound": "Cc1ccc(C(=O)n2nc(C)c(S(=O)(=O)N3CCCCCC3)c2C)cc1C", "Potency": "inconclusive [activator, partial curve]"}, {"compound": "O=C1CC(Cc2ccccc2)C(=O)N1CCc1ccc2c(c1)OCO2", "note": "(centres undefined)", "Potency": "inconclusive [activator, partial curve]"}, {"compound": "COc1cc(-n2c(C)nc3cc(C(=O)O)ccc32)cc(OC)c1OC", "growth rescue (activation)": "inactive: -1.76%"}, {"compound": "CCOc1ccccc1C(=O)Nc1cccc2ccccc12", "Potency": "inconclusive [activator, single point]"}, {"compound": "Cc1nn2c(C)c(C(=O)NCCc3ccccc3)cnc2c1-c1ccccc1", "Potency": "active: 17.8 µM"}, {"compound": "Cc1ccc(-c2csc(NC(=O)c3ccco3)n2)cc1C", "growth rescue (activation)": "inactive: -13.2% [at 1.82 µM]"}, {"compound": "O=C(Nc1cccc2cccnc12)c1cccc(Cl)c1", "Potency": "active: 14.1 µM"}, {"compound": "CCOc1ccc(NC(=S)NC(=O)/C=C/c2ccco2)cc1", "Potency": "inconclusive [activator, partial curve]"}, {"compound": "COC(=O)c1ccc(/C=C/C(=O)c2ccc(OC)c(OC)c2)cc1", "Potency": "inconclusive [activator, single point]"}, {"compound": "O=C(c1cn(-c2ccccc2)nc1-c1cccs1)N1CCN(c2ccc(F)cc2)CC1", "Potency": "inconclusive [activator, partial curve]"}, {"compound": "CNC(=O)c1c(NC(=O)/C=C/c2ccccc2)sc2c1CCC2", "Potency": "active: 17.8 µM"}, {"compound": "CCS(=O)(=O)NCCc1csc(-c2cccnc2)n1", "Potency": "inconclusive [activator, single point]"}, {"compound": "O=C(Nc1ccccc1)N1CCN(c2nc3ccccc3s2)CC1", "Potency": "active: 22.4 µM"}, {"compound": "COc1cc(S(=O)(=O)NC2CCCCC2C)ccc1Cl", "note": "(centres undefined)", "Potency": "inconclusive [activator, single point]"}, {"compound": "COc1ccccc1NC(=O)Nc1ccnn1C1CCCCC1", "growth rescue (activation)": "inactive: 11.2%"}, {"compound": "Fc1ccc(CNc2ccn3nc(-c4ccccc4)cc3n2)cc1", "Potency": "active: 17.8 µM"}, {"compound": "CCCOC(=O)c1ccc(NC(=O)COC(=O)C2CCN(c3ccc(C(F)(F)F)cn3)CC2)cc1", "Potency": "inconclusive [activator, single point]"}, {"compound": "CSc1ccc(CCNC(=O)CCCn2c(=O)c3cccn3c3ccccc32)cc1", "Potency": "inconclusive [activator, single point]"}, {"compound": "O=c1c2[nH]c3ccccc3c2nc2n1CCS2", "Potency": "inconclusive [activator, partial curve, poor fit]"}, {"compound": "Cc1ccc2cccc(OCC(=O)Nc3ccc4c(c3)OCO4)c2n1", "Potency": "inconclusive [activator, partial curve]"}, {"compound": "COc1cccc(NC(=O)c2c(F)cccc2F)c1", "Potency": "inconclusive [activator, partial curve]"}, {"compound": "COCc1ccc(C(=O)NC2CCCc3c2cnn3-c2ccc(C)c(C)c2)o1", "note": "(centres undefined)", "Potency": "inconclusive [activator, partial curve]"}, {"compound": "COc1ccc(-c2cc3c(c4c2ccn4C)C2CCC3O2)cc1OC", "note": "(centres undefined)", "Potency": "inconclusive [activator, partial curve, poor fit]"}, {"compound": "CCn1c(=O)c2cc(C(=O)N(C)c3ccccc3F)sc2c2ccccc21", "Potency": "inconclusive [activator, single point]"}, {"compound": "CC(C)c1ccc(N(CC(=O)O)S(=O)(=O)c2ccc3[nH]c(=O)c(=O)[nH]c3c2)cc1", "growth rescue (activation)": "inactive: -10.8%"}, {"compound": "Cc1ccc2ncc3c(-c4ccc(F)cc4)nn(CC(=O)Nc4ccccc4C)c3c2c1", "Potency": "inconclusive [activator, single point]"}]}]}
